Source: the supplement of paper PMC12217912
This is one part of the list. Sequences were assembled here from the parent chain. Values near 0.05 are background.

B1: TEV protease; numbered along this chain (parent)
chain: MGESLFKGPRDYNPISSSICHLTNESDGHTTSLYGIGFGPFIITNKHLFRRNNGTLVVQSLHGVFKVKDTTTLQQHLVDGRDMIIIRMPKDFPPFPQKLKFREPQREERICLVTTNFQTKSMSSMVSDTSCTFPSGDGIFWKHWIQTKDGQCGSPLVSTRDGFIVGIHSASNFTNTNNYFTSVPKNFMELLTNQEAQQWVSGWRLNADSVLWGGHKVFMVKPEEPFQPVKEATQL

Variants of: B1
Test: raw area under fraction-flipped curve 0-4 h after induction (AUC4h, not background-subtracted), DNA-recorder readout of cleavage of the substrate (dimensionless); higher = more cleavage of the substrate by the protease variant
Conditions: temperature: 34 °C; time window: 0-4 h after rhamnose induction
Method: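 In vivo DNA recorder in E. coli TOP10(DE3) ΔrhaA at 34 °C. Each TEVp single-site mutant (parent TEVp 0) is paired with a single-site variant of the 7-mer TEVs (canonical ENLYFQ|S). The substrate sits between flexible linkers in a Bxb1-sfGFP-TEVs-SsrA fusion, so cleavage stabilises Bxb1 and speeds flipping of a recombination array, read by NGS. The value is the raw area under the fraction-flipped curve over 0-4 h after rhamnose induction (AUC4h), with ≥20 reads per time point. It is not background-subtracted; inactive controls average about 0.047.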
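Further: Bxb1 expression induced with 0.2% (w/v) L-rhamnose at OD600 near 0.5, cultures sampled hourly, flipped fraction per protease–substrate barcode pair counted by paired-end Illumina sequencing.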

Row | Variant | area with substrate ENLYFQA | area with substrate ENLYFQC | area with substrate ENLYFQD | area with substrate ENLYFQF | area with substrate ENLYFQG | area with substrate ENLYFQK | area with substrate ENLYFQM | area with substrate ENLYFQP | area with substrate ENLYFQQ | area with substrate ENLYFQR | area with substrate ENLYFQS | area with substrate ENLYFQT | area with substrate ENLYFQW | area with substrate ENLYFQY | area with substrate ENLYFQE | area with substrate ENLYFQH | area with substrate ENLYFQI | area with substrate ENLYFQN | area with substrate ENLYFQL | area with substrate ENLYFQV
1 | P96D | 0.147 | 0.157 | 0.091 | 0.0902 | 0.0934 | 0.0785 | 0.0727 | 0.0593 | 0.0791 | 0.0674 | 0.114 | 0.0609 | 0.0623 | 0.0823 | – | – | – | – | – | –
2 | E108W | 0.0818 | 0.0795 | 0.0608 | 0.0585 | 0.072 | 0.0554 | 0.0622 | 0.0516 | – | 0.034 | 0.0625 | 0.0536 | 0.0588 | – | 0.0512 | 0.0565 | 0.049 | 0.0731 | – | –
3 | E108R | 0.0608 | – | 0.0526 | – | 0.0413 | 0.0595 | 0.0575 | 0.0423 | 0.0512 | – | 0.0606 | 0.0523 | – | – | – | 0.0586 | 0.0558 | – | 0.0507 | 0.0497
4 | Q105V | 0.115 | 0.12 | – | – | 0.119 | 0.0638 | 0.0948 | – | – | 0.0952 | 0.117 | 0.0717 | 0.0568 | 0.0848 | – | 0.0914 | 0.0498 | 0.0866 | 0.0705 | –
5 | F95Q | 0.0707 | – | – | – | – | – | – | – | 0.0367 | – | 0.0712 | 0.0468 | – | – | – | – | – | – | – | –
6 | Q74T | 0.0525 | – | – | – | – | 0.0649 | 0.0764 | – | – | – | 0.0814 | – | 0.0577 | – | – | – | – | – | – | –
7 | R109N | 0.0857 | 0.0962 | – | – | – | 0.0582 | – | – | – | 0.0589 | 0.0887 | 0.0686 | 0.0345 | 0.0792 | – | – | 0.0544 | 0.0796 | 0.047 | –
8 | R109A | 0.0881 | – | 0.0792 | 0.0584 | 0.126 | 0.0657 | – | – | – | 0.0445 | 0.102 | 0.0522 | – | – | – | – | 0.056 | – | – | 0.0558
9 | R109S | 0.128 | – | 0.0845 | 0.0834 | – | 0.0688 | 0.072 | 0.0548 | – | 0.0654 | 0.0929 | 0.0645 | 0.0662 | 0.0729 | – | 0.08 | 0.0629 | 0.0793 | – | 0.0878
10 | E103N | 0.0668 | – | – | – | – | – | – | – | – | – | 0.106 | – | 0.0731 | 0.0771 | – | – | – | – | 0.053 | 0.0664
11 | N116I | 0.0713 | – | – | – | – | – | – | – | – | – | 0.0912 | – | – | – | – | – | 0.0613 | 0.0786 | – | –
12 | P93E | 0.0526 | 0.137 | – | – | 0.131 | 0.0542 | 0.106 | 0.0671 | – | – | 0.127 | 0.0673 | 0.0711 | – | – | – | 0.102 | – | – | –
13 | Q97M | 0.0941 | – | 0.0801 | 0.112 | 0.0863 | 0.0374 | 0.0738 | 0.0755 | – | 0.075 | 0.1 | 0.0635 | 0.0673 | – | 0.0746 | 0.0917 | – | 0.0584 | 0.0676 | 0.0584
14 | Q118E | 0.0939 | 0.102 | – | – | 0.0915 | 0.0505 | – | – | – | 0.0645 | 0.0986 | – | 0.0648 | – | – | 0.0723 | – | – | 0.0461 | 0.0754
15 | L99A | 0.0934 | 0.102 | – | – | 0.0814 | 0.0615 | 0.0707 | – | – | 0.0634 | 0.0918 | 0.0781 | 0.0621 | – | – | 0.0703 | 0.0468 | 0.0646 | 0.04 | –
16 | S130A | 0.106 | 0.0953 | – | – | 0.0836 | 0.0758 | 0.0989 | 0.0569 | – | 0.0768 | 0.095 | 0.072 | 0.0586 | 0.0719 | – | 0.0679 | 0.0623 | 0.0713 | 0.0668 | 0.07
